To fix the notation:
B1: PhoQ; a variant is named by its letters at X, in order, P23837 (parent)
chain: MKKLLRLFFPLSLRVRFLLATAAVVLVLSLAYGMVALIGYSVSFDKTTFRLLRGESNLFYTLAKWENNKLHVELPENIDKQSPTMTLIYDENGQLLWAQRDVPWLMKMIQPDWLKSNGFHEIEADVNDTSLLLSGDHSIQQQLQEVREDDDDAEMTHSVAVNVYPATSRMPKLTIVVVDTIPVELKSSYMVWSWFIYVLSANLLLVIPLLWVAAWWSLRPIEALAKEVRELEEHNRELLNPATTRELTSLVRNLNRLLKSERERYDKYRTTLTDLTHSLKTPLXXLQXXLRSLRSEKMSVSDAEPVMLEQISRISQQIGYYLHRASMRGGTLLSRELHPVAPLLDNLTSALNKVYQRKGVNISLDISPEISFVGEQNDFVEVMGNVLDNACKYCLEFVEISARQTDEHLYIVVEDDGPGIPLSKREVIFDRGQRVDTLRPGQGVGLAVAREITEQYEGKIVAGESMLGGARMEVIFGRQHSAPKDE

The other results are listed elsewhere or left out. A value given as a limit tells only on which side of the number the result lay.

In this assay the parent is B1. Put plainly: enrichment ratio after two sorts for PhoP signalling (ratio (wild type AVST 3.29)); higher = more functional. Conditions: with PhoP (E. coli).
With GKLL, the enrichment ratio was 9. Then AVQW, with not above 0.25; and KTMS, with not above 0.25. Consider EGFK, for which the enrichment ratio is not above 0.25.

Consider DAYR, for which the enrichment ratio is not above 0.25. Then VHAL, with not above 0.25; and TPAD, with not above 0.25; and WKLW, with not above 0.25.

Turning to SMAC, the enrichment ratio was 12.5. To TKVS belongs 7.5; to FNES, not above 0.25; to LKEC, not above 0.25. Then PGES, with not above 0.25. As to FSQG, the enrichment ratio is not above 0.25. To MRHY belongs not above 0.25; to PFTI, not above 0.25; to NPFG, not above 0.25.

For the variant HQGN, the enrichment ratio is not above 0.25.

As for SGLS, the enrichment ratio came out at 10.8. FGMF: the enrichment ratio is not above 0.25. To EHGH belongs not above 0.25.

Regarding HRPY, the enrichment ratio is not above 0.25.

With VKVR, the enrichment ratio is not above 0.25. On to DLVP, for which the enrichment ratio was not above 0.25. AGLA: the enrichment ratio came out at 4.99.

With DNET, the enrichment ratio is not above 0.25. To IHRQ belongs not above 0.25; to KMNL, not above 0.25; to HAAL, not above 0.25. As to WPSS, the enrichment ratio is not above 0.25. Then EHTP, with not above 0.25.

Turning to IVNH, the enrichment ratio was not above 0.25.

As for THDI, the enrichment ratio was not above 0.25. Then LSLE, with 2.83; and AKSV, with 4.8.

In the case of KDYD, the enrichment ratio is not above 0.25. To DNAF belongs not above 0.25; to PFSM, 0.353; to ALYV, not above 0.25.

Regarding YKWK, the enrichment ratio was not above 0.25. To EIQH belongs not above 0.25; to DNLH, not above 0.25. Then NWPA, with not above 0.25.

Regarding RHHF, the enrichment ratio was not above 0.25. Then SIVS, with 4.88; and LEDF, with not above 0.25. To YYNN belongs not above 0.25; to PIYG, not above 0.25; to NQYA, not above 0.25. Then PICQ, with not above 0.25; and NQQT, with not above 0.25; and WMVR, with not above 0.25. For VNFQ, the enrichment ratio was not above 0.25. To APPT belongs not above 0.25; to RMLM, not above 0.25.

RMEF: the enrichment ratio is not above 0.25.

As for QCCW, the enrichment ratio was not above 0.25. As for YWRL, the enrichment ratio is not above 0.25. As for VHKL, the enrichment ratio is not above 0.25. Then FMDR, with not above 0.25; and GGKS, with not above 0.25. Then ARYN, with not above 0.25. To SFLK belongs not above 0.25. Consider YELL, for which the enrichment ratio amounted to 0.905.

For LMET, the enrichment ratio was not above 0.25. To PNDW belongs not above 0.25; to QDRI, not above 0.25. Then PRYW, with not above 0.25; and AGLC, with 12.4. To EELH belongs not above 0.25; to YHLP, not above 0.25; to PYAH, not above 0.25. For EAGE, the enrichment ratio is not above 0.25. Then AKHC, with not above 0.25. To TDMC belongs 3.92; to QAIA, not above 0.25. To PHTT belongs not above 0.25; to REIK, not above 0.25. Take RQYS: the enrichment ratio was not above 0.25. Then PYVN, with not above 0.25; and LNKN, with not above 0.25; and GVYK, with not above 0.25.

Regarding NRFC, the enrichment ratio is not above 0.25. To MRVD belongs not above 0.25.

The values are drawn from a collection of fitness landscapes (doi:10.1126/science.1257360).
